Binding signal data for 40 sequences are collected here from article PMC12820563, “FoxP3 forms a head-to-head dimer in vivo and stabilizes its multimerization on adjacent microsatellites”.

The list shows a part of the results.

This test addresses T1, MBP-FoxP1dN (Mus musculus, UniProt P58462 326-579).
T1 sequence: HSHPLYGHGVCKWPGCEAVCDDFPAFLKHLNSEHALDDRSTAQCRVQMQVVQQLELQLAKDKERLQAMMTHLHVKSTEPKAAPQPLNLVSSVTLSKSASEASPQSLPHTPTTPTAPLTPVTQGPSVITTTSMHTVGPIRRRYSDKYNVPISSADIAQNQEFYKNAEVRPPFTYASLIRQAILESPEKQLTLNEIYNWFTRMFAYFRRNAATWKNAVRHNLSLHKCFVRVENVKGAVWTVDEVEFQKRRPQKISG
As to the kind of experiment: PD-seq (MBP pull-down with sequencing); 20 mM Tris-HCl pH 7.5, 100 mM NaCl, 1.5 mM MgCl2, 0.4 uM protein, 0.1 uM dsDNA library, 30 min, room temperature, amylose pull-down; high values mean tight binding. The settings on record: protein: recombinant; tags: His6-MBP; chain copies: 2; dsDNA, one strand shown. The method in brief:
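The N-terminus-lacking fragment of mouse FoxP3 or FoxP1 carried a His6-MBP tag and was expressed in E. coli. At 0.4 µM it was incubated with 0.1 µM Klenow-filled degenerate double-stranded DNA library for 30 min at room temperature in Tris pH 7.5 buffer with NaCl and MgCl2, and complexes were caught on amylose resin, washed three times, released with proteinase K, PCR-barcoded and Illumina-sequenced. Binding is reads-per-million enrichment of pull-down over input with replicates pooled.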
Turning to “GATGATTGTTCTCCCAGCTGATGAATTTATATTTTCGAGTAAACAAATTTTCCTAATCTTTCTGTTCAAGCGCCATCTAC”, the binding signal is 2.37 RPM ratio (pull-down/input).

In the case of “GATGATTGTTCTCCCAGCTGATGAATTGTGATTGTCGAGTAAACAAATTTTCCTAATCTTTCTGTTCAAGCGCCATCTAC”, the binding signal was 1.67 RPM ratio (pull-down/input).

As for “GATGATTGTTCTCCCAGCTGATGAATTTACACAATCGAGTAAACAAATTTTCCTAATCTTTCTGTTCAAGCGCCATCTAC”, the binding signal was 1.87 RPM ratio (pull-down/input).

Consider “GATGATTGTTCTCCCAGCTGATGAATTGTCCGCTTCGAGTAAACAAATTTTCCTAATCTTTCTGTTCAAGCGCCATCTAC”, for which the binding signal was 0.894 RPM ratio (pull-down/input).

For “GATGATTGTTCTCCCAGCTGATGAATTGACTTTCTCGAGTAAACAAATTTTCCTAATCTTTCTGTTCAAGCGCCATCTAC”, the binding signal was 0.98 RPM ratio (pull-down/input).

For the sequence “GATGATTGTTCTCCCAGCTGATGAATTCTGTACCTCGAGTAAACAAATTTTCCTAATCTTTCTGTTCAAGCGCCATCTAC”, the binding signal was 0.846 RPM ratio (pull-down/input).

Regarding “GATGATTGTTCTCCCAGCTGATGAATTGTGGCCGTCGAGTAAACAAATTTTCCTAATCTTTCTGTTCAAGCGCCATCTAC”, the binding signal was 1 RPM ratio (pull-down/input).

Turning to “GATGATTGTTCTCCCAGCTGATGAATTACTCAAATCGAGTAAACAAATTTTCCTAATCTTTCTGTTCAAGCGCCATCTAC”, the binding signal was 1.24 RPM ratio (pull-down/input).

In the case of “GATGATTGTTCTCCCAGCTGATGAATTGGGTTGGTCGAGTAAACAAATTTTCCTAATCTTTCTGTTCAAGCGCCATCTAC”, the binding signal was 0.82 RPM ratio (pull-down/input).

Consider “GATGATTGTTCTCCCAGCTGATGAATTATCGCTTTCGAGTAAACAAATTTTCCTAATCTTTCTGTTCAAGCGCCATCTAC”, for which the binding signal was 1.15 RPM ratio (pull-down/input).

For “GATGATTGTTCTCCCAGCTGATGAATTACGACGGTCGAGTAAACAAATTTTCCTAATCTTTCTGTTCAAGCGCCATCTAC”, the binding signal is 0.984 RPM ratio (pull-down/input).

As for “GATGATTGTTCTCCCAGCTGATGAATTGACGGATTCGAGTAAACAAATTTTCCTAATCTTTCTGTTCAAGCGCCATCTAC”, the binding signal was 1.13 RPM ratio (pull-down/input).

“GATGATTGTTCTCCCAGCTGATGAATTTCTGCGTTCGAGTAAACAAATTTTCCTAATCTTTCTGTTCAAGCGCCATCTAC”: the binding signal is 0.979 RPM ratio (pull-down/input).

For the sequence “GATGATTGTTCTCCCAGCTGATGAATTTTCCCTCTCGAGTAAACAAATTTTCCTAATCTTTCTGTTCAAGCGCCATCTAC”, the binding signal is 0.877 RPM ratio (pull-down/input).

As for “GATGATTGTTCTCCCAGCTGATGAATTCTTGCAATCGAGTAAACAAATTTTCCTAATCTTTCTGTTCAAGCGCCATCTAC”, the binding signal was 1.16 RPM ratio (pull-down/input).

As for “GATGATTGTTCTCCCAGCTGATGAATTAAGTACCTCGAGTAAACAAATTTTCCTAATCTTTCTGTTCAAGCGCCATCTAC”, the binding signal was 0.928 RPM ratio (pull-down/input).

As for “GATGATTGTTCTCCCAGCTGATGAATTTGTGGCATCGAGTAAACAAATTTTCCTAATCTTTCTGTTCAAGCGCCATCTAC”, the binding signal is 1.3 RPM ratio (pull-down/input).

For “GATGATTGTTCTCCCAGCTGATGAATTAGTGACATCGAGTAAACAAATTTTCCTAATCTTTCTGTTCAAGCGCCATCTAC”, the binding signal was 1.19 RPM ratio (pull-down/input).

Turning to “GATGATTGTTCTCCCAGCTGATGAATTAATGGTTTCGAGTAAACAAATTTTCCTAATCTTTCTGTTCAAGCGCCATCTAC”, the binding signal is 1.05 RPM ratio (pull-down/input).

On to “GATGATTGTTCTCCCAGCTGATGAATTCCGACTGTCGAGTAAACAAATTTTCCTAATCTTTCTGTTCAAGCGCCATCTAC”, for which the binding signal is 0.861 RPM ratio (pull-down/input).

As to “GATGATTGTTCTCCCAGCTGATGAATTATTCCCATCGAGTAAACAAATTTTCCTAATCTTTCTGTTCAAGCGCCATCTAC”, the binding signal is 1.07 RPM ratio (pull-down/input).

For the sequence “GATGATTGTTCTCCCAGCTGATGAATTAGTTAACTCGAGTAAACAAATTTTCCTAATCTTTCTGTTCAAGCGCCATCTAC”, the binding signal is 0.93 RPM ratio (pull-down/input).

Regarding “GATGATTGTTCTCCCAGCTGATGAATTGTTTGAATCGAGTAAACAAATTTTCCTAATCTTTCTGTTCAAGCGCCATCTAC”, the binding signal is 1.35 RPM ratio (pull-down/input).

As to “GATGATTGTTCTCCCAGCTGATGAATTAGGGAGCTCGAGTAAACAAATTTTCCTAATCTTTCTGTTCAAGCGCCATCTAC”, the binding signal is 0.829 RPM ratio (pull-down/input).

Regarding “GATGATTGTTCTCCCAGCTGATGAATTCGGGGTCTCGAGTAAACAAATTTTCCTAATCTTTCTGTTCAAGCGCCATCTAC”, the binding signal was 0.803 RPM ratio (pull-down/input).

As for “GATGATTGTTCTCCCAGCTGATGAATTCAAACGATCGAGTAAACAAATTTTCCTAATCTTTCTGTTCAAGCGCCATCTAC”, the binding signal was 0.892 RPM ratio (pull-down/input).

Turning to “GATGATTGTTCTCCCAGCTGATGAATTCTTTGACTCGAGTAAACAAATTTTCCTAATCTTTCTGTTCAAGCGCCATCTAC”, the binding signal is 0.864 RPM ratio (pull-down/input).

“GATGATTGTTCTCCCAGCTGATGAATTGGATAGGTCGAGTAAACAAATTTTCCTAATCTTTCTGTTCAAGCGCCATCTAC”: the binding signal is 0.763 RPM ratio (pull-down/input).

For “GATGATTGTTCTCCCAGCTGATGAATTAGCAGTTTCGAGTAAACAAATTTTCCTAATCTTTCTGTTCAAGCGCCATCTAC”, the binding signal was 0.913 RPM ratio (pull-down/input).

Regarding “GATGATTGTTCTCCCAGCTGATGAATTAAGCATGTCGAGTAAACAAATTTTCCTAATCTTTCTGTTCAAGCGCCATCTAC”, the binding signal is 0.983 RPM ratio (pull-down/input).

As for “GATGATTGTTCTCCCAGCTGATGAATTTATGATGTCGAGTAAACAAATTTTCCTAATCTTTCTGTTCAAGCGCCATCTAC”, the binding signal is 1.51 RPM ratio (pull-down/input).

Consider “GATGATTGTTCTCCCAGCTGATGAATTCCTCCTATCGAGTAAACAAATTTTCCTAATCTTTCTGTTCAAGCGCCATCTAC”, for which the binding signal was 0.878 RPM ratio (pull-down/input).

In the case of “GATGATTGTTCTCCCAGCTGATGAATTCTGAACGTCGAGTAAACAAATTTTCCTAATCTTTCTGTTCAAGCGCCATCTAC”, the binding signal is 0.807 RPM ratio (pull-down/input).

For “GATGATTGTTCTCCCAGCTGATGAATTGTCATCCTCGAGTAAACAAATTTTCCTAATCTTTCTGTTCAAGCGCCATCTAC”, the binding signal was 1.11 RPM ratio (pull-down/input).

With “GATGATTGTTCTCCCAGCTGATGAATTACCTCGCTCGAGTAAACAAATTTTCCTAATCTTTCTGTTCAAGCGCCATCTAC”, the binding signal is 0.926 RPM ratio (pull-down/input).

On to “GATGATTGTTCTCCCAGCTGATGAATTGATGAAATCGAGTAAACAAATTTTCCTAATCTTTCTGTTCAAGCGCCATCTAC”, for which the binding signal is 1.16 RPM ratio (pull-down/input).

“GATGATTGTTCTCCCAGCTGATGAATTAACGCCCTCGAGTAAACAAATTTTCCTAATCTTTCTGTTCAAGCGCCATCTAC”: the binding signal is 0.873 RPM ratio (pull-down/input).

As for “GATGATTGTTCTCCCAGCTGATGAATTGCCCGGTTCGAGTAAACAAATTTTCCTAATCTTTCTGTTCAAGCGCCATCTAC”, the binding signal was 0.904 RPM ratio (pull-down/input).

Regarding “GATGATTGTTCTCCCAGCTGATGAATTGGATACCTCGAGTAAACAAATTTTCCTAATCTTTCTGTTCAAGCGCCATCTAC”, the binding signal was 0.93 RPM ratio (pull-down/input).

As to “GATGATTGTTCTCCCAGCTGATGAATTTTATGCGTCGAGTAAACAAATTTTCCTAATCTTTCTGTTCAAGCGCCATCTAC”, the binding signal is 1.12 RPM ratio (pull-down/input).
